Assay results reported in the supplement of paper PMC10126150.
Values marked as one replicate rest on one cluster of the flow cell; about a third of the high ones do not repeat.

Tested on: ATP
Assay: switch fluorescence ratio, 500 uM ATP over buffer (Cy3 cluster intensity, sum of 5 cycles each) (fold (ratio)); higher = stronger signal-on switching upon ATP binding; sequences stand for … in TCGTCGGCAGCGTCAGATGTGTATAAGAGACAGTTTTTTTTTTTTTTTTTTTTTTTTT…TC
Details: aptamer strand: ATP DNA aptamer (quencher-CACCTGGGGGAGTATTGCGGAGGAAGG + anchor), 100 nM annealed; ATP concentration: 500 uM; one replicate
Method in brief: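 Between each of five buffer/ATP cycles, the flow-cell was stripped with NaOH and re-annealed. Each cycle imaged Cy3-labelled switching-strand clusters, annealed to 100 nM quencher-labelled ATP aptamer on a modified Illumina MiSeq flow-cell, first in selection buffer and then after 15 min with 500 uM ATP at 22 °C. The fluorescence ratio is summed target-cycle over summed buffer-cycle Cy3 intensity per cluster, averaged per switch-domain sequence, with clusters outside 100-1000 RFU excluded.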
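Also: ATP exposure 15 min at 22 °C before imaging.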

Sequence	switch fluorescence ratio
AAAATGGAC	1.01
TGGCTGGATG	0.962
TCAAGGACTG	1.04
TCAGAGGTTA	0.992
TAGCTGAATC	1.03
GGTCTGGCGT	0.973
CTAGTGCATG	0.978
TAAGGAGCTG	1.02
CAGAAAACGC	1.47
GCTTTCAATT	1.04
GATACACACT	1.45
GGAGCACAGG	1.29
TCTCGTGTTG	1
ATCGAACGCC	1.2
TCATATGCCT	0.997
TTCCAGGTTT	1.67
CCATTGGAGC	1.01
TGTTGTCGGA	1.09
TACCCGGATT	1.03
TAAAGTTCGA	1.01
AGGGGCTCAC	1.02
TTTTTCCGAT	1.02
CGGGCAAGGC	1.01

Sequence	switch fluorescence ratio
ACTAGATGCT	0.997
AGGATGTCAT	0.95
TATGGCTTAG	0.991
GTTGATTTGA	0.989
GAATAATCCC	1.1
CCATGGCTAT	1.1
TTATAGCGAT	1.11
TTTTCATGCT	1.05
CGGCCGCATG	0.981
TGCGTACTGA	1.04
TTTATATCGA	1.01
CCAAGGCTCT	1.03
CGTCCATGGG	0.952
ATCGTAATAT	1.36
CACGTCATGT	1.12
TTGTTTTAAG	1.04
TCGATTAGTG	0.972
GTGGCAATTG	0.939
AGAGAGAGAG	0.995
ACGCACGTAT	1.24
AGTAACGTAC	1.92
AGCCGAAATA	0.97
AAGACGTGGC	1.02

Sequence	switch fluorescence ratio
ATTCGTAAGG	0.978
TTTATTAATA	0.983
CACACTATTA	1.05
AACTTACGTC	1.28
GGATGTATGA	1.01
TAGGAGCTTT	1.02
GTTTGCGCGA	1.02
TGAGTAAGCG	0.924
GCAAGGTATT	1.01
TAGGATGGTA	1
AGGGGATATC	1.2
CGATTCATTG	0.975
CCTGATAATA	1.03
GGGGTCTATT	1
GAAGGAACAT	1.03
GTTAATGCGC	1.04
ATCAGCAGCA	1.1
AGGCTGCCAA	1.03
TTCGGATGAT	0.993
GCTATACTTG	1.17
AGGCGTCCGG	0.961
GAGCGTTGGG	0.988
GTGCGCCGCT	1.07

Sequence	switch fluorescence ratio
ATTCTGACG	1.05
AGCGGTGTGT	1.02
TGCTTAAAA	0.956
TCGGCTGTAC	2.54
GTTGGACGGC	1.07
CCTAGAAGAC	1.9
ATTACAGTTA	1.01
ATAATTTTCT	1.01
CCTTGAAGAA	0.982
CTACTAGCGG	1.01
AGTATGATTC	1.04
CGTTGTGCAG	0.958
GACGGCTAGT	1.03
CAATATGGTC	1.05
AGTGGGGTGC	0.993
AGCCGATTCC	1.12
GGGCTGAGAT	1.02
CGTGTATCGG	0.995
CAAGGCGGTG	1.01
GTGAAACTCA	1.13
ATCCCTGGCG	1.01
ATGGTATCTA	1.02
TGGACTTCCT	1.45

Sequence	switch fluorescence ratio
ATCAGACTGA	0.978
GGCGTGAAAA	0.971
GCCAGAGAGA	0.987
TCGAGTGAAA	1.02
GTTTAACGAT	1.03
TATCCTCGAG	0.99
ATGGGGTTG	0.944
GAGTACCGTG	1.06
ACAAAGCATA	1.52
TCTGACATCT	0.988
CCCAAACTAG	0.992
GGTATGATGT	0.985
GAAGGGCGCC	0.998
AAGGCATTAG	1.05
CTACTCGTGC	0.971
TCCACCTCTT	1.03
ATTATACTTA	1.02
GTATTTAGGT	1.04
CGCACACTTA	1.36
ATCTCGAGAG	1.04
GAGAGTAACA	1.01
GAGAGTGATG	0.985
GTGTCTAAAA	0.985

Sequence	switch fluorescence ratio
CTGAGGTGGG	0.995
CTGTTGCCGT	0.971
ACTGATTCCC	1.01
GGGCTTGGAA	0.974
GCTTAGGCTG	0.948
TTGAGTGGGG	0.994
CGGGTAACAG	0.989
AATGTTATCA	0.978
TAAGTAGTTA	1.04
GGCCTAGGCA	0.995
CTGTCCCCGG	1.61
TGCTTGTAGA	1.01
CTGGATGCTC	1.16
TTTATTCT	1.03
GAAATCTAGA	0.972
CGAGAGGCGG	0.99
CATGGGGGT	0.981
TTTCAAGTT	1.01
GCATAAATTG	1.02
CTATCACAGA	1.03
TCTAAGATCT	1
ATATACTCAC	1.3
TTATAACCAA	0.999

Sequence	switch fluorescence ratio
GGTACACTCA	1.03
TTACAAACAG	1.08
GCTTGCATGG	1.05
TACGTGGTTT	1.03
ATATGTCCG	0.945
TTGTGTCTGT	1.02
TCAGGAGTTC	1
GTATGCGTAA	1.01
GTAGTCCCTA	0.998
AAGGAAGGAT	0.988
AGCGCGGAAT	0.921
CGTGGCGCTG	0.983
AATGGAAGAG	0.995
TTTGGCGCTT	1.04
GTGAACTGAG	1.01
GCCTTCTTAG	1.06
TGTGTCGGC	1.03
AGGTCTCGTT	1
ATTTCCCCCC	1.16
